Experimental data from ChEMBL document CHEMBL4888484, “Replenishing the malaria drug discovery pipeline: Screening and hit evaluation of the MMV Hit Generation Library 1 (HGL1) against asexual blood stage Plasmodium falciparum ,using a nano luciferase reporter read-out” (2022).
About 540 (0.36%) of roughly 150,000 compounds showed an effect of 50% or more. The list shows a part of the results.

tested on: Plasmodium falciparum; test: Primary screen in NF54 nanoGlo assay, in single point, at 2uM, 72h; a lower Z score goes with more inhibition; format: functional, Erythrocyte; conditions: timepoint 72 hour

Row | Structure (SMILES) | % Inhibition | Z score
1 | c1cnc(-c2nc(Cn3cc([C@H]4CCOC4)nn3)cs2)nc1 | 6% | -0.99
2 | Cc1csc([C@H](C)NS(=O)(=O)N2CCN(C)CC2)n1 | -4% | 0.71
3 | Cc1cnccc1-c1ccc(C(=O)N2CC(C)(CO)C2)s1 | -2% | 0.32
4 | c1cc2c(c(OCc3ncc(C4CC4)o3)c1)OCCO2 | -7% | 0.88
5 | Cc1nc(C#N)cc(N[C@H]2CCC[C@H]2Cn2ccnn2)n1 | -7% | 0.76
6 | COCCOC1COCCC1NC(=O)N1CCCCO1 (stereo not given) | -17% | 1.69
7 | Cc1nc(CCN(C)C(=O)NC[C@H]2CCCN2C(C)C)no1 | -8% | 1.41
8 | CCO[C@H]1CN(C(=O)Cc2noc3ccccc23)C[C@@H]1O | -9% | 1.36
9 | COc1ccc2c(c1)O[C@@H](C)CN(CCC(=O)N1CCOCC1)C2 | -9% | 1.58
10 | C[C@]1(NC(=O)Nc2cccc3ccsc23)CCOC1 | -5% | 0.7
11 | CC(C)N1CCN(Cc2ccc(C3CCCC3)s2)C[C@@H]1CCO | -9% | 1.16
12 | CO[C@H]1C[C@@H](O)C12CCN(c1nc(C)cc(C3CCC3)n1)CC2 | 3% | -0.62
13 | Cc1nn(-c2ccc3nncn3n2)c2c1[C@@H](c1ccc(C#N)cc1)CC(O)=N2 | -3% | 0.5
14 | COc1cc(C)c([C@H](C)Nc2nccc3nccnc23)cc1OC | 23% | -2.95
15 | Cn1ccnc1N1CCN(c2ncc(F)cn2)CC1 | -10% | 1.84
16 | CCOC(=O)N1CCN(C2=NC(=O)[C@@H](C#N)C3(CCCC3)N2)CC1 | -9% | 0.92
17 | Cc1nccn1CN1C(=O)c2ccccc2C1=O | -2% | 0.29
18 | NC(=O)c1ccc(-c2nc(-c3ccc(CO)o3)n(C3CCCCC3)n2)cc1 | -5% | 0.9
19 | CCCN1CC(=O)N(c2c(C)cc(C)cc2C)C1=O | -8% | 0.77
20 | c1ccc(N2CCN(C3CCN(C[C@H]4CCCCO4)CC3)CC2)nc1 | 2% | -0.4
21 | CCCN(CC(=O)N1CC(C)OC(C)C1)CC(F)(F)F (stereo not given) | -4% | 0.71
22 | Cc1scc(C(=O)N2CCN(CC(=O)Nc3nncs3)CC2)c1C | -2% | 0.35
23 | CC[C@H]1CCCCCN1C(=O)c1ccnc(OC2CCC2)c1 | -5% | 0.5
24 | Cc1ccn(CC(=O)Nc2c(-c3cnn(C)c3)nc3n2CCCC3)n1 | 20% | -2.52
25 | C1CCc2nnc(-c3[nH]nc4c3CCCC4)n2CC1 | 2% | -0.22
26 | COc1cccc(OC)c1-c1ccc2c(=O)[nH]ccc2c1 | -7% | 1.27
27 | CCOC(=O)c1nc2ccccc2nc1N1CCCN(S(=O)(=O)c2ccc(CC)cc2)CC1 | -9% | 0.9
28 | CN(C)[C@H]1CCN(C(=O)c2cnn(-c3nccc(-c4cc5ccccc5o4)n3)c2C2CC2)C1 | -3% | 0.47

Row | Structure (SMILES) | % Inhibition | Z score
29 | CCC(CC)C(=O)NCc1cn(CCOc2ccccc2)nn1 | -10% | 1.63
30 | CN(Cc1ccc(F)cc1)c1ccc(OCC(=O)N2CCc3nc[nH]c3[C@H]2c2ccccn2)nn1 | -10% | 1.98
31 | Cc1cc2c(cc3n2C[C@@](C)(C(=O)NC2CCCCC2)N(Cc2ccccc2Cl)C3=O)o1 | -5% | 0.88
32 | Cc1ccc(N(C)C[C@@H](O)Cc2ccccc2)c(C)c1 | -1% | 0.27
33 | CC(C)c1ccc(S(=O)(=O)N(CCN2CCCCC2)CC(=O)N2CCNCC2)cc1 | 12% | -1.45
34 | CN(Cc1ccsc1)S(=O)(=O)c1cccc2cccnc12 | 6% | -0.82
35 | CCN(CC)c1onc(-c2ccccc2)c1CN(C[C@H]1CCCO1)C(=O)COC | 7% | -0.7
36 | Cc1cc(C(=O)N2CCC3(CCC(=O)N(CCc4c[nH]cn4)C3)CC2)c(C)o1 | -10% | 1.47
37 | CCCn1nc(C(=O)N(CCc2ccccc2)Cc2ccccc2)ccc1=O | -9% | 1.15
38 | NC(=O)C1CCN(c2cc(C3CC(O)C3)ncn2)CC1 (stereo not given) | 0% | 0.02
39 | C[C@@H](CN1CCN(C)CC1)OC(=O)c1cccc(F)c1 | -7% | 0.78
40 | COc1cccc(-c2noc([C@@H]3CCCCN3C(=O)c3ccc(C(F)(F)F)cc3)n2)c1 | 1% | -0.18
41 | CCc1nnc2c(S(=O)(=O)N(Cc3ccccc3)c3cccc(Cl)c3)cccn12 | 1% | -0.06
42 | Nc1ccc2c(c1)NC(=O)[C@H](c1ccccc1)O2 | -1% | 0.15
43 | CCc1noc(CN(CC)Cc2c[nH]nc2-c2ccc(F)cc2)n1 | -4% | 0.41
44 | CCOC(=O)N1CCC(NC(=O)c2cc(C(=O)Nc3ccc(F)cc3F)ccc2CO)CC1 | -2% | 0.34
45 | CCN(CCn1cccn1)Cc1nc(-c2ccc(C)s2)oc1C | -5% | 0.4
46 | CC1CN(C)CCC1N(C)C(=O)C1CC(=O)N(Cc2cccc(C(F)(F)F)c2)C1 (stereo not given) | -4% | 0.55
47 | COCCCN(CCOC)C(=O)Nc1ccc(C)c(C)c1 | -16% | 1.56
48 | COCC(=O)N(C)[C@@H](CO)c1cc(OC)ccc1Br | 16% | -2
49 | O=C1CN(C(=O)Cc2ccccc2)CC(=O)N1 | 30% | -3.34
50 | CCN(CC(=O)Nc1ccc2c(c1)OCCO2)C(=O)C[C@H](C)c1ccccc1 | -2% | 0.23
51 | CCCCn1cnc2c(-c3ccccc3)cn(CC(=O)NC(C)C)c2c1=O | 2% | -0.33
52 | c1ncn(CCCc2ncnn2-c2ccc3c(c2)CCC3)n1 | -4% | 0.56
53 | Cc1nnc(CNCc2cc(Cl)ccc2OC[C@@H](O)CN2CCCCCC2)[nH]1 | -22% | 2.02
54 | CCc1cnc(CNC2c3ccccc3CCC2n2ccnc2)s1 (stereo not given) | -4% | 0.83
55 | CCN(CC)CCC[C@H](C)NC(=O)c1cc(Cl)cc(Cl)c1 | 1% | -0.11
